The list shows a part of the results. These are noisy estimates, calculated here from bound and input reads.
Each sequence was assayed against T1, Pho4 (S. cerevisiae) (UniProt P07270) (assay: relative binding free energy (BET-seq); higher = weaker binding). Details: reference: library average.
T1 sequence: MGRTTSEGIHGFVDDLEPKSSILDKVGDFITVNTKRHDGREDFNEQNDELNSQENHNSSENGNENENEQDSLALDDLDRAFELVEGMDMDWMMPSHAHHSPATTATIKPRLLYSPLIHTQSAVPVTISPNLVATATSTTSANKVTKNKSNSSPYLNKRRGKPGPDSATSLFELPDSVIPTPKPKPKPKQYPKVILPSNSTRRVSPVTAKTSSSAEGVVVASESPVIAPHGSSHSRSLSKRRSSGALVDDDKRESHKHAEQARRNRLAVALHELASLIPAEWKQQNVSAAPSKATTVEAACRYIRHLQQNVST

Relative binding free energy, 0.25 kcal/mol:
ATGTTCACGTGCGATG

Relative binding free energy, 0.4 kcal/mol:
GTGGTCACGTGTAAAT

Relative binding free energy, 0.26 kcal/mol:
GCATTCACGTGGGATG

Relative binding free energy, 0.35 kcal/mol:
GTCTCCACGTGAGGTT
ATTTTCACGTGATCAG
TTGGGCACGTGAAAAA

Relative binding free energy, 0.14 kcal/mol:
GTTGTCACGTGGTCTT
TGTTACACGTGTATAC
TTGTACACGTGATGAA
ATGCTCACGTGCGGTA

Relative binding free energy, 0.2 kcal/mol:
AGATGCACGTGAAGGG
GTGTTCACGTGCTGGT
ATGTGCACGTGAAGGT
ATAGACACGTGAGGTT
ATCTTCACGTGCTGTG

Relative binding free energy, -0.13 kcal/mol:
AAGTGCACGTGTTTGA
ATAGTCACGTGGTGGT
GTGAGCACGTGGTGCA

Relative binding free energy, 0.03 kcal/mol:
ATAATCACGTGGAGGT
TAAGTCACGTGGTGGG
AGTTCCACGTGTGCGT
GGGTACACGTGCATGG
GGATGCACGTGTTATT

Relative binding free energy, -0.24 kcal/mol:
CGTAGCACGTGGGATG

Relative binding free energy, 0.34 kcal/mol:
ACTTTCACGTGTGGGA
GTTCTCACGTGAGTGT

Relative binding free energy, -0.09 kcal/mol:
TTTAGCACGTGGCCGG
CGTGCCACGTGGTTGG
CAATGCACGTGGCGGG

Relative binding free energy, 0.49 kcal/mol:
GTATTCACGTGAGCGT

Relative binding free energy, -0.22 kcal/mol:
AGTGACACGTGGGTAT
TTAACCACGTGGTTGT

Relative binding free energy, -0.1 kcal/mol:
GGGGACACGTGGGGTC
ATATGCACGTGTTAGA
TTTTGCACGTGCTAAT
GGTCGCACGTGCAGGT
TTAAGCACGTGTGTAT

Relative binding free energy, -0.27 kcal/mol:
ATCAGCACGTGCGGGG

Relative binding free energy, 0.24 kcal/mol:
AGTTTCACGTGCGGAG
TAAAACACGTGACGGT
TGATTCACGTGGTTTT

Relative binding free energy, 0.29 kcal/mol:
TATGACACGTGAGGAT

Relative binding free energy, -0.02 kcal/mol:
AGATGCACGTGGTAAT
AGGGACACGTGGCGGC
CGGGTCACGTGGTTGT
CGGGTCACGTGGGTCG
TGGGGCACGTGAGCAT
CTTGTCACGTGTTCTG

Relative binding free energy, -0.04 kcal/mol:
GTGAACACGTGGCTTG
GCGAACACGTGGGTGG
TATAACACGTGTTAGA
GGTAGCACGTGGTGTT
CTGTGCACGTGGTCTT
GTAGACACGTGGTATT

Relative binding free energy, 0.08 kcal/mol:
GGCATCACGTGGGATG
AAAATCACGTGGTGTA
TTATGCACGTGACGTG
TTACGCACGTGATGGT
CGTAGCACGTGATGTG
CCGTGCACGTGATGTG
TGATACACGTGATATG

Relative binding free energy, 0.16 kcal/mol:
GTAGTCACGTGAGGAT
TGCATCACGTGTTGGA
TTGTTCACGTGGGGAA

Relative binding free energy, 0.04 kcal/mol:
CAAGACACGTGGGAGG
CGTGGCACGTGAGGAG
TATTCCACGTGGTATT
ATTGACACGTGTAGCG
CATGTCACGTGGCGGT
AAATTCACGTGTGTAG
GATGGCACGTGCCGTG
AAGTGCACGTGTCTGG

Relative binding free energy, -0.01 kcal/mol:
GTAAGCACGTGTGGTC
AAGGGCACGTGAGGCG

Relative binding free energy, -0.07 kcal/mol:
GTGGGCACGTGCGGGT
GTGACCACGTGGTTGT
TAGGGCACGTGGTAAG
TGGTCCACGTGTTTGG
TATGTCACGTGGGGAA
TAGTGCACGTGGCAAG

Relative binding free energy, 0.22 kcal/mol:
TGCTTCACGTGGAGGC
GTGTTCACGTGCGAGT
TTGAACACGTGAGAGG

Relative binding free energy, 0.47 kcal/mol:
GGTTTCACGTGAGTTA

Relative binding free energy, -0.15 kcal/mol:
CTAAGCACGTGGTGTA
TGTCACACGTGCGGGT
ATTAGCACGTGATTAG

Relative binding free energy, 0.05 kcal/mol:
CGCGGCACGTGTCGGG
AGGTGCACGTGTGCGG
AGTTACACGTGGGCTG
TATGTCACGTGGTGTG
TTATGCACGTGTGGAT

Relative binding free energy, -0.16 kcal/mol:
CTAGGCACGTGTTATG
TAAGGCACGTGGTTCT
TGTGCCACGTGTTCGG
AACGGCACGTGGTTAT

Relative binding free energy, 0.07 kcal/mol:
TTTCGCACGTGATTGA
GTGGTCACGTGGGTGG
AAGTGCACGTGGAGAA
GTTTCCACGTGGTAGA
CTGTACACGTGGTGGA
ATCAACACGTGTGTTG
ATGGTCACGTGTAGTT
TAATTCACGTGGTAAT
GTTGGCACGTGTGTGA

Relative binding free energy, -0.31 kcal/mol:
AGCAGCACGTGGTGGT

Relative binding free energy, 0.17 kcal/mol:
GCTAGCACGTGGAAGT
TGGAGCACGTGAATAG
GTACTCACGTGGTCGT
GTTCGCACGTGTAATG
AGACTCACGTGGGGCG

Relative binding free energy, -0.08 kcal/mol:
GTGAGCACGTGCATGT
AGGTGCACGTGGCGGG
TTGTGCACGTGGCAGC
AGTCGCACGTGGTGTG
CGCGTCACGTGGGGTT

Relative binding free energy, -0.11 kcal/mol:
AACGGCACGTGTGTAG
GGGCGCACGTGGAGGC
GAGTACACGTGGTCGG
AGGTGCACGTGGTATG

Relative binding free energy, 0.27 kcal/mol:
CAGGTCACGTGTTTAG
GAGAACACGTGATGGG
AAGTTCACGTGTGTGG
CGGTTCACGTGCGGAT
TTGGTCACGTGTCGTT
TAGTTCACGTGGATTG
TGTTACACGTGAAAGT
TGTATCACGTGAATAG

Relative binding free energy, -0.3 kcal/mol:
GTACGCACGTGGGCTG

Relative binding free energy, 0.15 kcal/mol:
ATGCTCACGTGGTTAT

Relative binding free energy, 0.33 kcal/mol:
GTGATCACGTGAAGGG
GGGTTCACGTGGAGCC

Relative binding free energy, -0.17 kcal/mol:
ATATACACGTGTTTGT
ACGGGCACGTGGAGGG
GTAGGCACGTGGGGTG

Relative binding free energy, 0.51 kcal/mol:
TGTTTCACGTGACCGT

Relative binding free energy, -0.18 kcal/mol:
AAAGACACGTGGGGTG

Relative binding free energy, 0.44 kcal/mol:
GATTTCACGTGCGAGT
GTATTCACGTGTCGCA

Relative binding free energy, -0.32 kcal/mol:
AAGAGCACGTGGGAGG

Relative binding free energy, 0.19 kcal/mol:
TATTTCACGTGGAGTA
ACGGTCACGTGTAGTT

Relative binding free energy, -0.12 kcal/mol:
TGGAGCACGTGCAGGG
TGCGGCACGTGTGGTA
ACTTGCACGTGGGGGG

Relative binding free energy, -0.03 kcal/mol:
ACGGTCACGTGGGTGT
TTTAACACGTGTCTAG
GTAGACACGTGTTTGT
GGTGACACGTGGGGCT
TCGGACACGTGTGTGT

Relative binding free energy, 0.36 kcal/mol:
TGGAACACGTGACATT

Relative binding free energy, 0.23 kcal/mol:
GGTTACACGTGTAAGT

Relative binding free energy, 0.06 kcal/mol:
TAGTCCACGTGTCGGT
AGTGTCACGTGGAGCG
ATTTGCACGTGGAGGT
TCTGGCACGTGATATT
AGGAGCACGTGGAATA
GTTTGCACGTGCGGTA

Relative binding free energy, 0.11 kcal/mol:
CTGATCACGTGGGGAT
TTGTGCACGTGATTAA
CGTGACACGTGAGTAG
CGCGGCACGTGACGGG

Relative binding free energy, 0.09 kcal/mol:
GATGTCACGTGGTCGA
TCTGACACGTGTGTTT

Relative binding free energy, 0.02 kcal/mol:
AGTAACACGTGTCAGG
TTTATCACGTGGTTAA
TGGAGCACGTGGAATT

Relative binding free energy, -0.2 kcal/mol:
GGCAGCACGTGGCGGT
AGGGGCACGTGGTTCT

Relative binding free energy, 0.31 kcal/mol:
GGATTCACGTGTATAG
CGTATCACGTGAGTTA
GGTTTCACGTGTGGCG

Relative binding free energy, 0.21 kcal/mol:
GTATACACGTGAGTGG
GGACTCACGTGGTGGG
GTGATCACGTGAGGAG

Relative binding free energy, 0.01 kcal/mol:
AGAGGCACGTGTGAGT
ATTGACACGTGATTGG
GTAAGCACGTGTGGGT
GTGGGCACGTGTCGTC
AGGGTCACGTGGCGAT
GTATACACGTGGTCAG
AGGAGCACGTGTTGAG

Relative binding free energy, 0.1 kcal/mol:
ATGGTCACGTGTGACG
GGTACCACGTGGTTGC
GGGGCCACGTGCAAGT
GTTGTCACGTGCGTTG
GTCTACACGTGGGGTG
GATGACACGTGGCGGT

Relative binding free energy, 0.3 kcal/mol:
GATTTCACGTGTGGTA
TTGTCCACGTGAAGTG
TAGTGCACGTGAGGTG

Relative binding free energy, -0.14 kcal/mol:
TTAGTCACGTGTTCGT
AAAGTCACGTGGGGTC
TGGGGCACGTGGCGGA
GGATGCACGTGCTGGG
TGGGGCACGTGACCGG

Relative binding free energy, -0.05 kcal/mol:
TGCCTCACGTGGGTTG
TGGTGCACGTGTCAGG
AGGTGCACGTGCTGGT
TTCAACACGTGGTTTG
TGCGTCACGTGGTGTA

Relative binding free energy, 0.18 kcal/mol:
TCAGTCACGTGTGCTG
TTTTCCACGTGTCGGG
GTGATCACGTGTATAG
GTGGTCACGTGTAGAG
GGAGTCACGTGCGAGT
TTGTACACGTGAGAGC

Relative binding free energy, 0.13 kcal/mol:
TCGGTCACGTGTATTT
TTGGTCACGTGTGTAG

Relative binding free energy, 0.28 kcal/mol:
TCATTCACGTGGTGGT
GTTATCACGTGAGGGT
GGCATCACGTGATGTT
CAATACACGTGAGGGG

Relative binding free energy, 0 kcal/mol:
TGGCGCACGTGTATTT
TGGGACACGTGGTGTT
GGTGTCACGTGGCCTT
TGATACACGTGCTTGT

Relative binding free energy, -0.19 kcal/mol:
ATTCGCACGTGGTGTG

Relative binding free energy, -0.06 kcal/mol:
GCAGGCACGTGTTGGA
TAGATCACGTGGGTTG
TTGTGCACGTGGGGAT

Relative binding free energy, -0.28 kcal/mol:
GGGACCACGTGGGGGG
ACGGGCACGTGGGCGG

Relative binding free energy, 0.12 kcal/mol:
TGAGTCACGTGCTTAT
ATTAGCACGTGTTAAT
TTCGTCACGTGTATGG
TTCTACACGTGTGTTA
CGAGTCACGTGTCGGG
AATGTCACGTGTGCGC

Relative binding free energy, 0.5 kcal/mol:
GATTTCACGTGAGCAT

Reference: the BET-seq Pho4 binding data (Le et al. 2018)
